Results published in publication PMC8945615 (Blood Advances, 2021).

Molecular target: T1, human fibrinogen (human, UniProt P02671-2 20-644; P02675 31-491; P02679-2 27-437)
T1 sequence (looked up) 1: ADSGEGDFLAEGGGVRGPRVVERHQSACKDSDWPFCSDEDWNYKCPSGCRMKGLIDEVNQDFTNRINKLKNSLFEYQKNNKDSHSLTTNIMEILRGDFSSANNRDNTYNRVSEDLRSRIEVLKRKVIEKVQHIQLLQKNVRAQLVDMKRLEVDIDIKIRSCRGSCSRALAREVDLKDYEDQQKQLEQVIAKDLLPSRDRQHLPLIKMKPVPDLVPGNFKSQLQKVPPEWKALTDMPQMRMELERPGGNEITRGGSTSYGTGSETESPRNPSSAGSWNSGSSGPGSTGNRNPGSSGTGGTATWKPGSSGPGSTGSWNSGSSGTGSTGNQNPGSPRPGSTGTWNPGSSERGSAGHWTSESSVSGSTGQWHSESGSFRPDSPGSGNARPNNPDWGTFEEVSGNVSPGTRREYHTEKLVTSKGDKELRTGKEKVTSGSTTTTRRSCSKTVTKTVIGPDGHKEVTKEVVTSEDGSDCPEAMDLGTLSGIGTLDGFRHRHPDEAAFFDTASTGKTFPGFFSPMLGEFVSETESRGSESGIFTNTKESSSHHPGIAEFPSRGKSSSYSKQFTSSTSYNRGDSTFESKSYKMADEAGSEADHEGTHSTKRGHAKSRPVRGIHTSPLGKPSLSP
T1 sequence (looked up) 2: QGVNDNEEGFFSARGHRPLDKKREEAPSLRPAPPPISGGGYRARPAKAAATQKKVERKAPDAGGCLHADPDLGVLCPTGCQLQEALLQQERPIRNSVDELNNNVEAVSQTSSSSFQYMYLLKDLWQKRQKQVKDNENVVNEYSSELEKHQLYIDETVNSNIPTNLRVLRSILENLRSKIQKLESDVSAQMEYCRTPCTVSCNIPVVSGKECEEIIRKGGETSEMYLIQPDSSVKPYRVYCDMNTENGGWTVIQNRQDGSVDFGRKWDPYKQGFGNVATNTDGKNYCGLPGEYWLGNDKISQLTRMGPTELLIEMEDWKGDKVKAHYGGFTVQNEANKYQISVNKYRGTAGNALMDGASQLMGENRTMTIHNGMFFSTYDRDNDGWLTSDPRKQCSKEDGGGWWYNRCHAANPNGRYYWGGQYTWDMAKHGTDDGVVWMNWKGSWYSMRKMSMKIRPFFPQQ
T1 sequence (looked up) 3: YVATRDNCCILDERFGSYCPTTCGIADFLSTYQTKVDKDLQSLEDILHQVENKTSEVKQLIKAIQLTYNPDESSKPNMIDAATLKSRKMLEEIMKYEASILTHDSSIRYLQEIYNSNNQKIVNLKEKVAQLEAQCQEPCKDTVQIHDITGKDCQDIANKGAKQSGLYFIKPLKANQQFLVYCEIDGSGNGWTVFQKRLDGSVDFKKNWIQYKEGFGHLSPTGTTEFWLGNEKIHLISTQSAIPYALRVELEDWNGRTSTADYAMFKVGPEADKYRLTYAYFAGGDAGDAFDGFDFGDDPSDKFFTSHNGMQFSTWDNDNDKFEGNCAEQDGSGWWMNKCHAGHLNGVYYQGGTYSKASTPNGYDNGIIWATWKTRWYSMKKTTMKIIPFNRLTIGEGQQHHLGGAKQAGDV
Experiment: SPR

B1: full-length, purified αIIbβ3 (receptor)
chain 1: not shown
chain 2: GPNICTTRGVSSCQQCLAVSPMCAWCSDEALPLGSPRCDLKENLLKDNCAPESIEFPVSEARVLEDRPLSDKGSGDSSQVTQVSPQRIALRLRPDDSKNFSIQVRQVEDYPVDIYYLMDLSYSMKDDLWSIQNLGTKLATQMRKLTSNLRIGFGAFVDKPVSPYMYISPPEALENPCYDMKTTCLPMFGYKHVLTLTDQVTRFNEEVKKQSVSRNRDAPEGGFDAIMQATVCDEKIGWRNDASHLLVFTTDAKTHIALDGRLAGIVQPNDGQCHVGSDNHYSASTTMDYPSLGLMTEKLSQKNINLIFAVTENVVNLYQNYSELIPGTTVGVLSMDSSNVLQLIVDAYGKIRSKVELEVRDLPEELSLSFNATCLNNEVIPGLKSCMGLKIGDTVSFSIEAKVRGCPQEKEKSFTIKPVGFKDSLIVQVTFDCDCACQAQAEPNSHRCNNGNGTFECGVCRCGPGWLGSQCECSEEDYRPSQQDECSPREGQPVCSQRGECLCGQCVCHSSDFGKITGKYCECDDFSCVRYKGEMCSGHGQCSCGDCLCDSDWTGYYCNCTTRTDTCMSSNGLLCSGRGKCECGSCVCIQPGSYGDTCEKCPTCPDACTFKKECVECKKFDRGALHDENTCNRYCRDEIESVKELKDTGKDAVNCTYKNEDDCVVRFQYYEDSSGKSILYVVEEPECPKGPDILVVLLSVMGAILLIGLAALLIWKLLITIHDRKEFAKFEEERARAKWDTANNPLYKEATSTFTNITYRGT
  fold increase of ka1 on priming with PT25-2 (against unprimed αIIbβ3): ~3 fold
